Laboratory results reported in PubChem BioAssay AID2101 (National Center for Advancing Translational Sciences (NCATS), 2009).
About 300 (0.091%) of roughly 330,000 compounds were called active. This list was built around the results that the source calls inconclusive (neither active nor inactive); the mix of calls is not that of the screen. Calls follow the shape of the dose curve; as a rule, active = well fitted inhibition curve with a large enough effect; inconclusive = small, poorly fitted or top-dose-only effect, or effect the other way, or another doubt; inactive = no such curve, though single readings can be large or run the other way. No potency is given beside an inconclusive call; the fits are too rough.
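For activity change, negative = inhibition in this document: 0% = full enzyme activity and -100% = no enzyme basal.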
Potency is read from the fitted curve at half-maximal effect.

The compounds below were run against Lysosomal acid glucosylceramidase (Homo sapiens) (UniProt P04062) (assay: qHTS Assay for Inhibitors and Activators of N370S glucocerebrosidase as a Potential Chaperone Treatment of Gaucher Disease). Settings: N370S GC spleen homogenate, 4MU-glucoside fluorescence; activity change, negative = inhibition: at 59.4 µM (top of the series) unless noted.
In the case of `CCOC(=O)c1c(C)c(C(=O)NCc2ccccn2)c(C)n1C`, the Potency is reported as inconclusive [inhibitor, partial curve].
`Cc1ccccc1Cn1cccc1/C=C1/C(=N)N2C=CSC2=NC1=O` was tested, and the Potency was inconclusive [activator, partial curve].
For `Cc1ccc(-c2cc(C(=O)N/N=C/c3ccoc3)c3ccccc3n2)cc1`, the Potency was inconclusive [activator, single point].
For `N#C/C(=C\c1c(N2CCN(c3ccccc3)CC2)nc2ccccn2c1=O)C(N)=O`, the Potency was inconclusive [activator, single point].
For `CCOC(=O)CNc1c(-c2ccc(F)cc2)nc2cnccn12`, the Potency was “inactive”.
With `O=C(C1CCN(CCCc2ccccc2)CC1)N(CCc1ccccc1)Cc1ccccc1` the Potency was inconclusive [inhibitor, single point].
`CC(C)c1ccc(NC(=O)CSC(C)c2nc3ccccc3c(=O)[nH]2)cc1` (centres undefined) was tested, and the Potency was “inactive”.
In the case of `CCc1ccc(-c2cc(C(=O)N3N=C(C(F)F)CC3(O)C(F)F)c3ccccc3n2)cc1` (centres undefined), the Potency is reported as inconclusive [inhibitor, single point].
For `COc1ccc(-c2cc3ncc(-c4ccccc4)c(N)n3n2)cc1`, the Potency was “inactive”.
For `C[C@H](NC(=O)c1nc[nH]c1C(=O)NC(c1ccccc1)c1ccccc1)C(=O)OCc1ccccc1`, the Potency was inconclusive [activator, partial curve].
In the case of `COc1ccc(NC(=O)/C=C/c2ccccc2)cn1`, the Potency is reported as “inactive”.
With `C=CCSc1nn2c(=O)c3ccccc3nc2s1` the Potency was “inactive”.
With `CC(C)(C)NC(=O)CCc1nnc(Cc2c[nH]c3ccccc23)o1` the activity change, negative = inhibition was inconclusive: 30.1% [activator].
`CC(C)Sc1nc2sc3c(c2c2nnc(SCC(=O)NCc4ccco4)n12)CCCC3` was tested, and the Potency was “inactive”.
In the case of `CC1(C)CC(=O)C2=C(C1)c1c(ccc3ccccc13)NC2c1ccc(Br)o1` (centres undefined), the Potency is reported as inconclusive [activator, full curve].
For `COc1ccccc1C(=O)Nc1nnc(-c2ccc3c(c2)CCCC3)o1`, the Potency was inconclusive [activator, single point].
With `COC(=O)/C=C/COc1ccccc1[N+](=O)[O-]` the Potency was inconclusive [inhibitor, full curve, poor fit].
`COC(=O)c1[nH]c2ccc(Cl)cc2c1NC(=O)Oc1ccccc1` was tested, and the Potency was “inactive”.
For `CCc1ccc(OCC(=O)N/N=C/c2cc([N+](=O)[O-])ccc2N2CCOCC2)cc1`, the Potency was inconclusive [inhibitor, partial curve].
For `O=C(NNS(=O)(=O)c1ccccc1)C(O)(c1ccccc1)c1ccccc1`, the Potency was inconclusive [activator, partial curve].
For `CCOC(=O)c1cc(-c2ccccc2)sc1NC(=O)C(C)Sc1nnnn1C` (centres undefined), the Potency was inconclusive [activator, single point].
In the case of `C=C(C)C(O)/C=C/c1ccc(OC)cc1` (centres undefined), the activity change, negative = inhibition is reported as inactive: 2.54% [at 12.8 µM].
For `N#C/C(=C/c1cn(-c2ccccc2)nc1-c1cccc(OCc2ccc(F)cc2)c1)C(=O)NCCCn1ccnc1`, the Potency was active: 15.8 µM.
`Nc1nc(N)c2cc(Sc3ccc4ccccc4c3)ccc2n1` was tested, and the Potency was inconclusive [inhibitor, partial curve].
For `O=c1c2ccccc2oc2nc(-c3ccco3)n(Cc3ccccc3)c(=O)c12`, the activity change, negative = inhibition was inconclusive: 29.1% [activator].
For `Cc1cc2nc3c(=O)[nH]c(=O)nc-3n(CC(O)C(O)C(O)CO)c2cc1C` (centres undefined), the Potency was inconclusive [inhibitor, single point].
`CN(C(=O)COC(=O)c1ccccc1NCCO)C1CCS(=O)(=O)C1` (centres undefined) was tested, and the Potency was inconclusive [activator, partial curve].
With `CCOC(=O)c1ccc2[nH]c(C)cc(=O)c2c1` the Potency was “inactive”.
`FC(F)(F)c1cc(-c2cccs2)nc2ncnn12` was tested, and the Potency was inconclusive [activator, partial curve].
`Cc1ccc(/C(O)=C/c2nc3cc(C)ccc3oc2=O)cc1` was tested, and the Potency was “inactive”.
For `COc1ccc(-c2nc(NC(=O)CSc3nnc4ccccn34)ns2)cc1`, the Potency was inconclusive [inhibitor, single point].
In the case of `Cc1cccc(CNc2ncnc3ccc(-c4ccc(C(=O)N(C)C)cc4)cc23)c1`, the Potency is reported as inconclusive [inhibitor, single point].
For `CCC(C)NC(=O)c1cc2c(=O)n3cccc(C)c3nc2s1` (centres undefined), the Potency was inconclusive [activator, partial curve].
`CC(C)(CNC(=O)c1ccc(Cl)c(S(=O)(=O)N2CCc3ccccc3C2)c1)N1CCOCC1` was tested, and the Potency was inconclusive [inhibitor, partial curve].
`O=C(NC(CCl)c1ccccc1)c1ccc(Cl)cc1` (centres undefined) was tested, and the Potency was inconclusive [inhibitor, single point].
In the case of `Cc1ccccc1N(C(=O)c1snc(C(N)=O)c1N)C(C(=O)NCc1ccccc1)c1ccc(O)cc1` (centres undefined), the Potency is reported as inconclusive [activator, single point].
With `CCCCC/C=C\C=C\C(O)CCCCCCCC(=O)O` (centres undefined) the Potency was “inactive”.
For `COc1ccc(C2CC(=O)Oc3c(C(CCN4CCCC(C)C4)c4ccc(N(C)C)cc4)c(OC)cc(OC)c32)cc1` (centres undefined), the Potency was inconclusive [inhibitor, full curve, poor fit].
For `O=c1c2c3nc4ccccc4nc3n(-c3ccc4c(c3)OCCO4)c2ncn1CC1CCCO1` (centres undefined), the Potency was inconclusive [inhibitor, full curve].
In the case of `CC1Cc2nc(SCC(=O)NCc3ccco3)n(Cc3ccccc3)c(=O)c2S1` (centres undefined), the Potency is reported as “inactive”.
In the case of `COC(CNc1nc(SC)nc2sc3c(c12)CCN(C)C3)OC`, the Potency is reported as inconclusive [activator, single point].
With `C#CCOCCOCCOCCNc1nc(N2CCN(C(=O)CCCCCCCCCCNC(=O)[C@H](CCCCN)n3cc(CCO)nn3)CC2)nc(N2CCN(C(=O)CCCCCCCCCCNC(=O)[C@@H]([C@H](C)O)n3cc(C)nn3)CC2)n1` the Potency was inconclusive [inhibitor, full curve].
In the case of `Cc1nc(-c2ccccn2)sc1C(=O)Nc1ccc(Cl)c(Cl)c1`, the Potency is reported as inconclusive [activator, partial curve].
For `COc1ccc(CCN2CCCC(CN(C)C(=O)c3cc(C)oc3C)C2)cc1` (centres undefined), the Potency was “inactive”.
For `Cc1ccc(-c2nnc(SCC(=O)NC(=O)Nc3ccc(C)cc3C)n2N)cc1`, the Potency was inconclusive [activator, full curve].
With `COP(=O)(OC)c1nc(-c2cccc3ccccc23)oc1NCc1ccccc1` the Potency was inconclusive [activator, partial curve].
In the case of `Cc1cccc(-n2c(O)c(C=NCCCN3CCOCC3)c3ccccc3c2=O)c1`, the Potency is reported as “inactive”.
With `CCN(CC(=O)Nc1ccc(NC(C)=O)cc1)C(=O)c1cn(-c2ccccc2)nc1-c1cccs1` the Potency was “inactive”.
With `COc1ccccc1N1CCN(C(=O)CN2C(=O)c3cccc4cccc(c34)C2=O)CC1` the Potency was “inactive”.
In the case of `CCOC(=O)C1CCCN(c2cc(=O)n(C3CCCCC3)c(=O)[nH]2)C1` (centres undefined), the Potency is reported as inconclusive [activator, partial curve].
With `CCCCn1c(SCC(=O)Nc2ccc(OC)cc2)nc2ccc(N3CCOCC3)cc2c1=O` the Potency was inconclusive [activator, single point].
`CCCNC(=O)CSc1nc(Cc2ccccc2)nc2ccccc12` was tested, and the Potency was inconclusive [activator, single point].
In the case of `O=C(CSc1ccc(Cl)cc1)N1CCOCC1`, the Potency is reported as “inactive”.
With `Cc1ccc(CN2CCSc3ccc(C(=O)NCC4CCCO4)cc32)cc1` (centres undefined) the Potency was inconclusive [activator, single point].
`Cc1ccc(Nc2nc3ccccc3nc2Nc2c(C)n(C)n(-c3ccccc3)c2=O)cc1` was tested, and the Potency was “inactive”.
`C[C@H](NC(=O)c1nc[nH]c1C(=O)N[C@@H](Cc1ccccc1)C(=O)OCc1ccccc1)C(=O)OC(C)(C)C` was tested, and the Potency was inconclusive [activator, single point].
With `Oc1ccc(N=Cc2ccc(OCc3ccccc3)cc2)cc1` the Potency was inconclusive [inhibitor, partial curve].
For `FC(F)(F)c1ccccc1-c1cc(NCc2ccccc2)ncn1`, the Potency was “inactive”.
For `N#Cc1c2n(c3c(=O)n(Cc4ccccc4Cl)cnc13)CCCC2`, the Potency was inconclusive [activator, partial curve].
In the case of `CC(C)NC(=O)CCN1C(=O)c2ccccc2Sc2ncccc21`, the Potency is reported as “inactive”.
`O=C1C2Sc3[nH]c(=O)sc3C(c3cc([N+](=O)[O-])ccc3O)C2C(=O)N1c1ccccc1` (centres undefined) was tested, and the Potency was inconclusive [inhibitor, partial curve].
`O=S1(=O)C=C(Sc2nnc(-c3ccccc3)o2)c2ccccc21` was tested, and the Potency was “inactive”.
With `CN(CC(=O)Nc1ccccc1Br)C(=O)COc1cccc2c1OC(C)(C)C2` the Potency was inconclusive [inhibitor, single point].
For `O=C(CSc1nncc(=O)[nH]1)NC1CCCCC1`, the Potency was inconclusive [inhibitor, single point].
For `CSCC[C@H](NC(=O)c1ccc(Cl)c([N+](=O)[O-])c1)c1nc2ccccc2[nH]1`, the Potency was inconclusive [activator, single point].
With `O=[N+]([O-])c1ccc(O)c(-c2nn[nH]n2)c1` the Potency was “inactive”.
`Cc1ccc(SC(CC(=O)c2ccc(C)cc2)C(=O)O)cc1` (centres undefined) was tested, and the Potency was “inactive”.
`COc1ccccc1C1CC(=O)Oc2cc3c(cc21)OCO3` (centres undefined) was tested, and the Potency was “inactive”.
`O=C(Nc1ccc(C2CC2(Cl)Cl)cc1)c1cccc([N+](=O)[O-])c1` (centres undefined) was tested, and the Potency was inconclusive [activator, single point].
